By IC50 is meant the dose at which the fit gives 50% viability; fits outside the tested doses are given as limits. AUC is the area under the same curve over the 256-fold range up to the top dose, as a fraction; it is 1 without any effect and falls as sensitivity rises. The top dose, if marked as inferred, was calculated from the reported fits.
What follows are cell lines tested with O=C1NC(=O)/C(=C\c2ccc3nccnc3c2)S1 [AS605240] (assay: Viability of human cancer cell lines after 72 h of drug (GDSC screen)). Conditions: top dose inferred.
Experimental: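 Human cancer cell lines in 384-well plates, medium with 10% serum, drug for 72 h over a 256-fold dose range (nine 2-fold or five 4-fold steps up to the top dose). Adherent lines were fixed and stained with the nucleic acid dye Syto60, suspension lines read with resazurin; signal relative to control wells, capped at 0 and 100%. One two-parameter sigmoid per drug and line, fitted in a mixed model over all curves with the slope shared within a line.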

Row | Cell Line | AUC | IC50 [µM]
1 | MCF7 (breast, adherent, top dose 20 µM) | 0.961 | > 20
2 | MDA-MB-157 (breast, adherent, top dose 20 µM) | 0.87 | 19.5
3 | MDA-MB-175-VII (breast, adherent, top dose 20 µM) | 0.814 | 12.3
4 | MDA-MB-231 (breast, adherent, top dose 20 µM) | 0.873 | > 20
5 | MDA-MB-330 (breast, adherent, top dose 20 µM) | 0.958 | > 20
6 | MDA-MB-361 (breast, adherent, top dose 20 µM) | 0.89 | > 20
7 | MDA-MB-415 (breast, adherent, top dose 20 µM) | 0.962 | > 20
8 | MDA-MB-436 (breast, adherent, top dose 20 µM) | 0.963 | > 20
9 | MDA-MB-453 (breast, adherent, top dose 20 µM) | 0.504 | 1.28
10 | MDA-MB-468 (breast, adherent, top dose 20 µM) | 0.875 | 18.4
11 | MDST8 (large intestine, adherent, top dose 20 µM) | 0.836 | 13.2
12 | ME-1 (acute myeloid leukaemia, suspension, top dose 20 µM) | 0.378 | 0.562
13 | ME-180 (cervix, adherent, top dose 20 µM) | 0.699 | 4.65
14 | MEG-01 (chronic myeloid leukaemia, suspension, top dose 20 µM) | 0.445 | 0.894
15 | MEL-JUSO (melanoma, adherent, top dose 20 µM) | 0.604 | 2.49
16 | MES-SA (uterus, adherent, top dose 20 µM) | 0.949 | > 20
17 | MFE-280 (endometrium, adherent, top dose 20 µM) | 0.621 | 2.95
18 | MFE-296 (endometrium, adherent, top dose 20 µM) | 0.959 | > 20
19 | MFE-319 (endometrium, adherent, top dose 20 µM) | 0.838 | 12.9
20 | MFH-ino (soft tissue, adherent, top dose 20 µM) | 0.91 | > 20
21 | MFM-223 (breast, adherent, top dose 20 µM) | 0.896 | > 20
22 | MG-63 (osteosarcoma, adherent, top dose 20 µM) | 0.982 | > 20
23 | MHH-ES-1 (Ewing sarcoma, adherent, top dose 20 µM) | 0.788 | 8.66
24 | MHH-NB-11 (neuroblastoma, adherent, top dose 20 µM) | 0.978 | > 20
25 | MHH-PREB-1 (B-cell leukaemia, suspension, top dose 20 µM) | 0.918 | > 20
26 | MIA-PaCa-2 (pancreas, adherent, top dose 20 µM) | 0.915 | > 20
27 | MKN1 (stomach, adherent, top dose 20 µM) | 0.896 | > 20

Row | Cell Line | AUC | IC50 [µM]
28 | MKN28 (stomach, adherent, top dose 20 µM) | 0.968 | > 20
29 | MKN45 (stomach, adherent, top dose 20 µM) | 0.854 | > 20
30 | ML-1 (thyroid, adherent, top dose 20 µM) | 0.972 | > 20
31 | ML-2 (acute myeloid leukaemia, suspension, top dose 20 µM) | 0.237 | 0.241
32 | MLMA (hairy cell leukaemia, semi-adherent, top dose 20 µM) | 0.732 | 5.78
33 | MMAC-SF (melanoma, adherent, top dose 20 µM) | 0.651 | 3.35
34 | MN-60 (B-cell leukaemia, suspension, top dose 20 µM) | 0.713 | 5.13
35 | MOG-G-CCM (glioma, adherent, top dose 20 µM) | 0.974 | > 20
36 | MOG-G-UVW (glioma, adherent, top dose 20 µM) | 0.867 | 17.1
37 | MOLM-13 (acute myeloid leukaemia, suspension, top dose 20 µM) | 0.673 | 3.66
38 | MOLP-8 (myeloma, suspension, top dose 20 µM) | 0.542 | 1.61
39 | MOLT-4 (lymphoblastic leukaemia, suspension, top dose 20 µM) | 0.575 | 1.93
40 | MOLT-13 (T-cell lymphoblastic leukaemia, suspension, top dose 20 µM) | 0.714 | 4.6
41 | MONO-MAC-6 (acute myeloid leukaemia, suspension, top dose 20 µM) | 0.758 | 7.34
42 | MPP-89 (mesothelioma, adherent, top dose 20 µM) | 0.962 | > 20
43 | MRK-nu-1 (breast, suspension, top dose 20 µM) | 0.989 | > 20
44 | MS751 (cervix, adherent, top dose 20 µM) | 0.973 | > 20
45 | MS-1 (small cell lung carcinoma, suspension, top dose 20 µM) | 0.903 | > 20
46 | MSTO-211H (mesothelioma, adherent, top dose 20 µM) | 0.983 | > 20
47 | MV-4-11 (leukaemia, suspension, top dose 20 µM) | 0.773 | 6.44
48 | MY-M12 (leukaemia, suspension, top dose 20 µM) | 0.662 | 3.75
49 | MZ1-PC (pancreas, adherent, top dose 20 µM) | 0.473 | 1.04
50 | MZ2-MEL (melanoma, adherent, top dose 20 µM) | 0.197 | 0.13
51 | MZ7-mel (melanoma, adherent, top dose 20 µM) | 0.349 | 0.47
52 | Mewo (melanoma, adherent, top dose 20 µM) | 0.985 | > 20
53 | Mo-T (hairy cell leukaemia, suspension, top dose 20 µM) | 0.397 | 0.648
54 | NALM-6 (B-cell leukaemia, suspension, top dose 20 µM) | 0.608 | 2.34

Row | Cell Line | AUC | IC50 [µM]
55 | NAMALWA (Burkitt lymphoma, suspension, top dose 20 µM) | 0.852 | 11.8
56 | NB5 (neuroblastoma, adherent, top dose 20 µM) | 0.855 | 16.3
57 | NB6 (neuroblastoma, adherent, top dose 20 µM) | 0.908 | > 20
58 | NB7 (neuroblastoma, adherent, top dose 20 µM) | 0.952 | > 20
59 | NB10 (neuroblastoma, adherent, top dose 20 µM) | 0.972 | > 20
60 | NB12 (neuroblastoma, adherent, top dose 20 µM) | 0.912 | > 20
61 | NB13 (neuroblastoma, adherent, top dose 20 µM) | 0.985 | > 20
62 | NB14 (neuroblastoma, adherent, top dose 20 µM) | 0.984 | > 20
63 | NB17 (neuroblastoma, adherent, top dose 20 µM) | 0.978 | > 20
64 | NB69 (neuroblastoma, adherent, top dose 20 µM) | 0.274 | 0.312
65 | NB(TU)1-10 (neuroblastoma, adherent, top dose 20 µM) | 0.977 | > 20
66 | NB-4 (acute myeloid leukaemia, suspension, top dose 20 µM) | 0.096 | 0.0868
67 | NCC021 (kidney, adherent, top dose 20 µM) | 0.935 | > 20
68 | NCI-H23 (lung adenocarcinoma, adherent, top dose 20 µM) | 0.609 | 2.48
69 | NCI-H28 (mesothelioma, adherent, top dose 20 µM) | 0.975 | > 20
70 | NCI-H64 (small cell lung carcinoma, suspension, top dose 20 µM) | 0.91 | 15
71 | NCI-H69 (small cell lung carcinoma, suspension, top dose 20 µM) | 0.922 | > 20
72 | NCI-H82 (small cell lung carcinoma, suspension, top dose 20 µM) | 0.974 | > 20
73 | NCI-H187 (small cell lung carcinoma, suspension, top dose 20 µM) | 0.944 | > 20
74 | NCI-H196 (small cell lung carcinoma, adherent, top dose 20 µM) | 0.479 | 1.09
75 | NCI-H209 (small cell lung carcinoma, suspension, top dose 20 µM) | 0.955 | > 20
76 | NCI-H211 (small cell lung carcinoma, adherent, top dose 20 µM) | 0.937 | > 20
77 | NCI-H226 (lung squamous cell carcinoma, adherent, top dose 20 µM) | 0.714 | 5.2
78 | NCI-H292 (lung adenocarcinoma, adherent, top dose 20 µM) | 0.772 | 9.38
79 | NCI-H322M (lung adenocarcinoma, suspension, top dose 20 µM) | 0.839 | 18.6
80 | NCI-H345 (small cell lung carcinoma, suspension, top dose 20 µM) | 0.982 | > 20
